The list shows a part of the results.
B1: chr10:117282838:117282939:-|3pUTR|ENSG00000165650|unk|FALSE|bound_elsewhere (ssRNA)
RNA: GGGAGUUCUACAGUCCGACGAUCCCCCUUGUGUUAUUUUUCUUCCUCUUGGUUUUUGAAUUAGUGUUAAAUAGAAUACUGUCUAGAUUCUUAAAAUAUUUUCAUUUCCAUCAUGGUUAUAACAAAUUUGCUGCAUGCCCAAACCAACAGAGGAUUGAGCAUCA
B2: ENSG00000070961:be:win_4051|3pUTR|ENSG00000070961|bound_else_gene|NA|bound_elsewhere_windowed (ssRNA)
RNA: GGGAGUUCUACAGUCCGACGAUCAUUUCUGCUGUUGGCUGUUAAUAAUUUGGAUUAUUUAUGUUUAUAAAUGAUACAGAUCUGUUUACAAGGUUUGUAGAUACUUUUUUUGUUCCUGUUCAUAGAUGGGAAGCUUCCUUAUAACAACAGAGGAUUGAGCAUCA
B3: chr14:67647084:67651481:-|three_prime_utr|ENSG00000100568|control|control|control (ssRNA)
RNA: GGGAGUUCUACAGUCCGACGAUCGCUCGCCAUCCUGGGAGGCCUGGUUUACUACAAAUUCUUUCGCAGCCAUUGAACUUCUAUAGGGAAGGGUUUGUGGACCAGAACUUUGACCUUGUGAAUGCAUGAUGUUAGGGAUGUGGACAACAGAGGAUUGAGCAUCA
B4: ENSG00000070961:be:win_51|CDS|ENSG00000070961|bound_else_gene|NA|bound_elsewhere_windowed (ssRNA)
RNA: GGGAGUUCUACAGUCCGACGAUCUUUGAAGGAAGCUAAUCAUGAUGGAGACUUUGGAAUUACGCUCGCAGAGCUGCGGGCUCUCAUGGAGCUCAGGUCCACAGAUGCAUUACGAAAAAUACAGGAAAGCUAUGGAGAUGUCUACAACAGAGGAUUGAGCAUCA
B5: ENSG00000132661:stop:overlap|stop_codon|ENSG00000132661|stop_codon|NA|stop_codon (ssRNA)
RNA: GGGAGUUCUACAGUCCGACGAUCCCAGCAACACAGUGUGGAAGAUCGCAAGUGACUGCUUCCGCUUCCAGGACUGGGCCAGCUAGUGGGGGUGGCAGAGGUCUCUUUGCUUCAUUCAGCCCUAGCUCUGUAGAGAAAUGCAAACAACAGAGGAUUGAGCAUCA
B6: chr1:64777895:64778004:+|CDS|ENSG00000162437|unk|FALSE|bound_elsewhere (ssRNA)
RNA: GGGAGUUCUACAGUCCGACGAUCGGAUUUGUGGAAUACAUGAAAAAGGACUUUGCUGCAAAGGCUAGACUGGAGCUAUUGGGUAGACAGUUGGGAGCAUCAGCACUCUUUGCACAAUGGAUGGAUGUUAAUCUAUUGGCUUCACAACAGAGGAUUGAGCAUCA
B7: chr9:134030564:134030586:-|3pUTR|ENSG00000169925|msi1_unk|total|mutant (ssRNA)
RNA: GGGAGUUCUACAGUCCGACGAUCCCUCUGACAGUCUUUUGGGAAAGAGUAACACCCACAUACAGAAUUUGUCACAUCCAGAGCCGCACUGUUCCUUAAUACUGGCAUAAUGCUUCCAGGAAGUUUUUCUUUUUUAUAUUUAAACAACAGAGGAUUGAGCAUCA
B8: chr1:150960872:150960973:+|CDS|ENSG00000143379|unk|FALSE|unique (ssRNA)
RNA: GGGAGUUCUACAGUCCGACGAUCGGACUCCCACCCCCCAGAUCUUGGACCCCCACAUAUUCCUGUUCCUCCCUCAAUCCCUGUAGGUGGCUGCAAUCCACCUUCCUCCGAAGAGACACCCAAGAACAAGGUGGCCUCAUGGUUCAACAGAGGAUUGAGCAUCA
B9: chr4:56461171:56461272:+|3pUTR|ENSG00000128050|msi1|FALSE|bound_elsewhere (ssRNA)
RNA: GGGAGUUCUACAGUCCGACGAUCCUUCUGUAACCACAGUGACUACAAGUAGUUCUUUCUCUAUUGAAUUAUUAGGUCCAGAAUAGAAGAUGUCAUUGUACACUUUAUUUCCCUCACACUGUGUUAUGCUCUGAUGUGCUAUGCCAACAGAGGAUUGAGCAUCA
B10: chr6:143501988:143502101:-|CDS|ENSG00000001036|unk|FALSE|unique (ssRNA)
RNA: GGGAGUUCUACAGUCCGACGAUCUUCAUGUGGAGGAAAUCUUUUGAUGAAUAUUGGGCCCACACUAGAUGGCACCAUUUCUGUAGUUUUUGAGGAGCGACUGAGGCAAAUGGGGUCCUGGCUAAAAGUCAAUGGAGAAGCUAUCAACAGAGGAUUGAGCAUCA
B11: chr17:48058596:48058697:+|CDS|ENSG00000082641|msi1|total|mutant (ssRNA)
RNA: GGGAGUUCUACAGUCCGACGAUCCAAUGGCACAGCCAAUGACACAGCAGGCCCAGAGCUGCCUGACCCUUUGGGGGGUCUGUCCGAUGAAGCUAUGUUGGAUGAGAUCAGCCUUAUGGACCUGGCCAUUGAAGAAGGCUUUAACAACAGAGGAUUGAGCAUCA
B12: ENSG00000136451:be:win_1|CDS|ENSG00000136451|bound_else_gene|NA|bound_elsewhere_windowed (ssRNA)
RNA: GGGAGUUCUACAGUCCGACGAUCAUGGAGGCCAACUGGACCGCGUUCCUGUUCCAGGCCCAUGAAGCUUCCCAUCACCAACAGCAGGCAGCACAGAACAGCUUGCUGCCCCUCCUGAGCUCUGCCGUGGAGCCCCCUGAUCAGCAACAGAGGAUUGAGCAUCA
B13: chr12:16548371:16551327:-|three_prime_utr|ENSG00000048540|control|control|control (ssRNA)
RNA: GGGAGUUCUACAGUCCGACGAUCCAUUCUUUUAUCUUUUUUGCUCCACAUGUACAUAAGAAUUGACACAGGAACCUACUGAAUAGCGUAGAUAUAGGAAGGCAGGAUGGUUAUAUGGAAUAAAAGGCGGACUGCAUCUGUAUGCAACAGAGGAUUGAGCAUCA
B14: chr6:30541380:30546071:-|three_prime_utr|ENSG00000204590|control|control|control (ssRNA)
RNA: GGGAGUUCUACAGUCCGACGAUCCUGACCUGGGGGUAUCUCCCCUCUGCCACCCCAAUUGUGAAUAAAGAUUGUUUGCUUUGUAGCCCCUUCCCCAGAUGAACUGAGGUGAGAGCGGCUGUUCCAGGCUAACAGCUGUGGGAGCAACAGAGGAUUGAGCAUCA
B15: chr2:240467638:240467855:+|3pUTR|ENSG00000063660|msi1|FALSE|unique (ssRNA)
RNA: GGGAGUUCUACAGUCCGACGAUCGGACGGAGGUCCCCGGUUGCUGGUCAGGUCCCCAUGGCUUGUUCUCUGGAACCUGACUUUAGAUGUUUUGGGAUCAGGAGCCCCCAACACAGGCAAGUCCACCCCAUAAUAACCCUGCCACAACAGAGGAUUGAGCAUCA
B16: ENSG00000148488:stop:overlap|stop_codon|ENSG00000148488|stop_codon|NA|stop_codon (ssRNA)
RNA: GGGAGUUCUACAGUCCGACGAUCAAGAGUCUAAAGCAAGACAAAAGUGCAAAACAAAAAGAAAAACUAUAAACUCCAUCUUGUAGAUUUGUAGAUUCGCCACAACCAAGUCUGACUGUGACACUCCCAAGAAAUCUGUAUGUACAACAGAGGAUUGAGCAUCA
B17: chr3:31579932:31580050:+|CDS|ENSG00000163527|unk|total|mutant (ssRNA)
RNA: GGGAGUUCUACAGUCCGACGAUCUACAUCUAUAUCUACUUUCCUGCUUACAAGAGAACUUUGGAACCAAGGAGCAGGACUUUCCGCUGCUUGUUUUAUUGCUAUUGUACCAGGCUACAUAUCUCGGUCAGCCGCUGGAUCCUUCAACAGAGGAUUGAGCAUCA
B18: ENSG00000198589:be:win_3851|CDS|ENSG00000198589|bound_else_gene|NA|bound_elsewhere_windowed (ssRNA)
RNA: GGGAGUUCUACAGUCCGACGAUCGGCAAGGAAUAGCACCAGAUGCAGUUAAUGGACAAAGGAGGGAUUCCAGAUCUACUGUGUUUCGUAUUCCUGAGUUCAACUGGUCUCAGAUGCAUCAACGUUUGCUCACUGAUCUAUUAUCAACAGAGGAUUGAGCAUCA
B19: chrX:40074726:40074839:-|CDS|ENSG00000183337|unk|FALSE|unique (ssRNA)
RNA: GGGAGUUCUACAGUCCGACGAUCGCGCUGGGCUUGGACAGGCCUGCCAGCGACAAACAGAGCCCUCUCAACAUCAAUGGUGCUAGUUAUCUGCGGCUGCCCUGGGUCAAUCCUUACAUGGAGGGUGCCACGCCAGCCAUCUACCAACAGAGGAUUGAGCAUCA
B20: chr11:74333230:74333331:-|3pUTR|ENSG00000165434|msi1|total|mutant (ssRNA)
RNA: GGGAGUUCUACAGUCCGACGAUCUGAGUCUUUUAUUGAAGGGUUCAAAGUAAGAAAUACUAUGCCACCGUGUUCUCCAUCUCCCGUGAAGACAGAACCAGAGGGAAUAAGGAUCUUUUUUUUAAAGACAGCAUGGAAAGUUUACAACAGAGGAUUGAGCAUCA
B21: chr8:22006149:22006250:+|3pUTR|ENSG00000130227|msi1|total|mutant (ssRNA)
RNA: GGGAGUUCUACAGUCCGACGAUCGAAUGUAUGAACUGGAGGAAGUUACUACAGUGGAAGGGUUCUUAAUAACAAGGUCUACCCCGCAUGAAGUAUUUAACAUUCUCCCAUCCCUUAAAAAAUAUACAUUUUUAUAAAAUGAAACAACAGAGGAUUGAGCAUCA
B22: chr5:113594843:113594944:+|3pUTR|ENSG00000047188|msi1|FALSE|bound_elsewhere (ssRNA)
RNA: GGGAGUUCUACAGUCCGACGAUCCAACAUAAAAUCUUGAGAACCUUCUACUUUCUCUGGGAAAGCAUUAUAUAGUGGUGCAUUAGUUUAGAAAGUCAGCUAUGAUUUUGCCUAUAGUUCUAGUUAUUAGCUUUGGGGUUUUCUCAACAGAGGAUUGAGCAUCA

These binders were tested against MSI1 full-length (mouse, UniProt Q61474 1-362) (assay: nsRBNS (natural sequence RNA bind-n-seq); RBNS binding buffer (assumed for nsRBNS): 25 mM Tris pH 7.5, 150 mM KCl, 3 mM MgCl2, 0.01% Triton X-100, 500 ug/ml BSA, 20 U/ml SUPERase-In, 4 C; UNK is unkempt and MSI1 is Musashi-1; names of the RNAs are library labels; protein concentration not given here; high values mean tight binding).
UniProt Q61474, sequence (Q61474 whole entry): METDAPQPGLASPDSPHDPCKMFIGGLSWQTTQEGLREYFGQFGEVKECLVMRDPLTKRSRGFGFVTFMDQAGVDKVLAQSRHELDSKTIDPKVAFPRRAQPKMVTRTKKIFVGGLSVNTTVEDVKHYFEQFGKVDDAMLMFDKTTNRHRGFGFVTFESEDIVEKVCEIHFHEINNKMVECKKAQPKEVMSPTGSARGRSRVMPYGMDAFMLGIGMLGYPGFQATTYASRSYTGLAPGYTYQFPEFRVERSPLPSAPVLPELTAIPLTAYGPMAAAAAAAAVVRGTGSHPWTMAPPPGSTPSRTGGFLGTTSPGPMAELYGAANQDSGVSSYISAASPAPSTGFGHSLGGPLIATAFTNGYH

| Binder | binding signal [enrichment R] |
| --- | --- |
| B1 | 3.9 |
| B2 | 1.02 |
| B3 | 0.606 |
| B4 | 0.351 |
| B5 | 0.481 |
| B6 | 0.468 |
| B7 | 0.526 |
| B8 | 0.477 |
| B9 | 1.03 |
| B10 | 0.735 |
| B11 | 0.295 |
| B12 | 0.567 |
| B13 | 11.3 |
| B14 | 0.482 |
| B15 | 0.416 |
| B16 | 0.278 |
| B17 | 0.55 |
| B18 | 0.336 |
| B19 | 0.462 |
| B20 | 0.233 |
| B21 | 0.38 |
| B22 | 31.3 |
